SMILES strings stand for the structures. Over roughly 110,000 compounds, “z-score” has its median near -0.1; the highest 2% begin near 2. The list shows a part of the results. Active and inactive are the calls of the source.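 Rule for the calls: active = z-score in the third read window above 3 or below -3; inactive = the rest.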

The test deals with Metabotropic glutamate receptor 8 (Rattus norvegicus) (UniProt P70579). The test can be described thus: rat mGluR8 modulators via GIRK flux, primary screen, cell-based, thallium flux, HTS (AID 488969). Conditions: HEK293 rat mGluR8, GIRK (G protein-gated inwardly rectifying potassium channel) thallium flux, FluoZin2; at 10 µM; stronger effect = higher value; submaximal glutamate (EC20) added with thallium.
Sequence of UniProt P70579 (P70579 whole entry, looked up): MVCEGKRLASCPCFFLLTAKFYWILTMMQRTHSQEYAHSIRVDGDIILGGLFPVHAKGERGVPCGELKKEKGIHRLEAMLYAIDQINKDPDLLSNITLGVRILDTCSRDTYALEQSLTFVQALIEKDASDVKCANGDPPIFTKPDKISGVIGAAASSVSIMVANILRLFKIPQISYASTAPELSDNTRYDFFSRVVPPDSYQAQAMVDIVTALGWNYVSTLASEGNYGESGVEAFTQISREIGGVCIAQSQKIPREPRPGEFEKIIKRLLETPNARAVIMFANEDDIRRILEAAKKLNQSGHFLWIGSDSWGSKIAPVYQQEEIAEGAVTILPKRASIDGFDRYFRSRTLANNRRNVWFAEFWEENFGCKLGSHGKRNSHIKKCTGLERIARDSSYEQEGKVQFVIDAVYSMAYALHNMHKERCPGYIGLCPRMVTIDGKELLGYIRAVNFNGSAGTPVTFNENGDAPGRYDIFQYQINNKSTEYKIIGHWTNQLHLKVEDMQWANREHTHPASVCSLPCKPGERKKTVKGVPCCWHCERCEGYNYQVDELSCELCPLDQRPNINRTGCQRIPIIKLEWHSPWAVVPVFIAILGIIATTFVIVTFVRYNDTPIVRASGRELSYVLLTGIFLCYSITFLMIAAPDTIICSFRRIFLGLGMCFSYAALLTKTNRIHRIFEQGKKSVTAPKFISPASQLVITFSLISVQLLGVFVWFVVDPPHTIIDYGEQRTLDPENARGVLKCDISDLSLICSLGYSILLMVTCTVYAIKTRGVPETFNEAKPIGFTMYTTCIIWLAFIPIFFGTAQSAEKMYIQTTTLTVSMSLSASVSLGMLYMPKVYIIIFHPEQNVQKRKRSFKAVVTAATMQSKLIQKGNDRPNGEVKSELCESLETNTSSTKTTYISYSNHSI
Consider `CCCS(=O)(=O)c1nc(S(=O)(=O)c2ccc(C)cc2)c(NCc2ccco2)s1`, for which the z-score is -0.497.
Consider `COCCCNc1nc2c(c(=O)[nH]c(=O)n2C)n1CC(O)COc1cccc(C)c1` (configuration not stated), for which the z-score was -0.438.
`COc1ccc(CCN2CC(C(=O)O)CC2=O)cc1` (configuration not stated): the z-score is -0.116.
In the case of `COc1cc(C(=O)Nc2cccc(-c3nc4cc(C)ccc4o3)c2C)cc(OC)c1OC`, the z-score is -0.257.
Turning to `CCCCCCCC(=O)NC(Nc1ccccc1OC)C(Cl)(Cl)Cl` (configuration not stated), the z-score was 0.0752.
For `CC1CCc2sc(C(=O)N/N=C/C3CCCCC3)cc2C1` (configuration not stated), the z-score was -0.764.
As to `COCCCNC(=O)C(=O)N/N=C/c1ccc(OCC(=O)Nc2cccc(Cl)c2C)c(OC)c1`, the z-score is -0.14.
`CCc1nnc(NC(=O)CCC(=O)NC2CCCCC2)s1`: the z-score was -0.00318.
For `CCN1C(=O)CC(Sc2ccccc2C(=O)O)C1=O` (configuration not stated) the value was -0.229.
For `COc1ccc(NC(=O)CC(C(=O)O)N2CCCCC2)cc1` (configuration not stated) the value was -0.185; for `CCC(Oc1ccccc1)C(=O)Nc1nc2ccccc2[nH]1` (configuration not stated), 0.681.
In the case of `COc1ccc(NC(=O)c2ccc(NS(=O)(=O)c3c(C)noc3C)cc2)cc1OC` it was -0.245; in that of `CCC(C)n1cnc2c(c1=O)c1nc3ccccc3nc1n2Cc1ccc(OC)cc1` (configuration not stated), -0.0767.
Take `COC(=O)c1cccc(NC(=O)CSc2ncn[nH]2)c1`: the z-score is -0.00365.
In the case of `N#Cc1cc(NC2CCCC2)c([N+](=O)[O-])cc1C#N` it was -0.261; in that of `COc1ccc(C(=O)NC(=S)NC2CCSC2=O)cc1` (configuration not stated), -0.163; in that of `COc1ccccc1N(Cc1cc2cccc(C)c2[nH]c1=O)C(=O)C(C)C`, 0.249.
In the case of `CSc1oc(-c2ccccc2)nc1S(=O)(=O)c1ccc(F)cc1` it was -1.79; in that of `CCS(=O)(=O)Nc1ccc(C(=O)c2ccccc2)cc1`, 0.395.
For `Cc1cc(OCCCn2ccnc2)ccc1C(C)C` the value was -0.0779.
Take `CCOC(=O)c1c(C(F)(F)C(F)(F)C(F)(F)C(F)(F)F)n[nH]c1C`: the z-score was -1.38.
For `O=C(C1CC(c2ccccc2O)=NO1)N1CCCCC1` (configuration not stated) the value was -0.227; for `COc1ccc(NC(=O)CCC2COc3ccccc3O2)c(OC)c1` (configuration not stated), -0.077; for `COc1cccc(C(=O)NCc2ccc(-c3nc4ccccc4s3)cc2)c1`, -0.00857.
For `O=C(O)c1ccc2c(=O)n3c(nc2c1)/C(=C/c1cccc(Cl)c1Cl)CCCC3` the value was -0.312.
In the case of `COc1cc(NC(=O)C2CCCN2C(=O)C2CCC(C)CC2)cc(OC)c1OC` (configuration not stated) it was 0.546; in that of `O=C(CCN1CCCCC1)c1ccccc1`, -0.426; in that of `CCOC(=O)Nc1ccc(C)cc1NC(=O)OCC`, 0.103.
In turn, `CC(C)(C)C(=O)Nc1ccc(S(=O)(=O)c2ccc(NC(=O)C(C)(C)C)cc2)cc1` returned a z-score of 0.254.
For `Cc1c(NC(=O)Nc2ccc(Cl)c(Cl)c2)sc(=S)n1C` the value was 0.371; for `CCC(CC)c1nnc(NC(=O)C2COc3ccccc3O2)s1` (configuration not stated), active: 3.82; for `CCn1c2ccccc2c2cc(NS(=O)(=O)c3ccc(C)cc3)ccc21`, -0.244.
For `COc1ccc(NC(=O)c2ccccc2NS(C)(=O)=O)cc1OC` the value was 0.00676; for `O=C(C(Cc1ccccc1)N1C(=O)c2ccccc2C1=O)N1CCc2ccccc21` (configuration not stated), -0.00701.
In the case of `CCCc1c(C)c2cc(C)ccc2[nH]c1=O` it was -1.09; in that of `COCc1nnc(NC(=O)c2ccc(NC(=O)C(C)C)cc2)s1`, -0.0999; in that of `Cc1onc(-c2ccccc2Cl)c1C(=O)Nc1ccccc1N1CCOCC1`, -0.0396.
Regarding `O=C1CC(C(=O)N(c2ccc(F)cc2)C(C(=O)NC2CCCC2)c2ccccn2)CS1` (configuration not stated), the z-score was found to be 0.0588.
For `Cc1ccc(S(=O)(=O)c2nc(NCc3ccc4c(c3)OCO4)sc2Cl)cc1` the value was -0.124; for `O=C(Nc1ccccc1F)c1ccncc1`, -0.212; for `Cc1cc(=O)n(C)c(=O)n1CC(=O)N1CCCCCC1`, 0.975.
On to `CCOc1ccc(NC(=O)N2CCC(NC(=O)C(Cc3ccc(OC)c(OC)c3)NC(C)=O)CC2)cc1` (configuration not stated), for which the z-score is -0.0478.
In the case of `CCCC(=O)NCCc1cc(OC)c(OC)cc1Br` it was 0.142; in that of `Cc1nc2ccccc2c(=O)n1NC(=O)Cc1ccccc1`, -0.647; in that of `C/C=C/CSc1nc2c(c(=O)[nH]c(=O)n2C)n1CCC`, -0.0886.
`CN(C)CCCNS(=O)(=O)c1ccc(Oc2ncc(C(F)(F)F)cc2Cl)cc1` returned a z-score of 0.269.
For `CCN(CC)S(=O)(=O)c1cc(C(=O)Nc2cccnc2)ccc1Cl` the value was -0.586; for `Cc1ccc(OC(C)C(=O)N2CCc3ccccc32)cc1` (configuration not stated), 0.303; for `O=C(Nc1cc2c3c(c1)C1CCCC1CN3CC1CCCC21)c1ccccc1` (configuration not stated), 0.78.
Compound `Cc1nc(CS(=O)(=O)c2ccccc2)cc(Sc2ccccc2Cl)n1` showed a z-score of 0.313.
For `COCCn1c(-c2ccc(Cl)cc2)nc2c(c(=O)c3ccccc3n2C)c1=O` the value was -0.92; for `COc1ccc(-c2cc(C(=O)NCc3ccc(Cl)cc3)no2)cc1OC`, 0.149; for `CCOc1ccc(C(C)(O)CN2CCOCC2)cc1` (configuration not stated), -0.692.
`O=C(NCCCN1CCN(CCCNC(=O)c2ccccc2F)CC1)c1ccccc1F` yielded a z-score of 0.0387.
For `Cn1ncc2c(NNC(=O)Cc3cccc4ccccc34)ncnc21` the value was -0.0819; for `O=c1[nH]c(SCc2ccccc2Cl)nc2c1CCC2`, -0.568.
For `Cc1ccc(-c2nnn(CC(=O)N3CCCCC3)n2)c(-n2cnnn2)c1` the value was active: 3.32; for `CC1CCN(C(=O)c2ccc(NS(C)(=O)=O)cc2)CC1`, 0.157.
For `CCOC(=O)c1cn(CC(=O)Nc2ccc(C(C)C)cc2)nn1` the value was -0.235; for `Cc1ccc(C(=O)Nc2ccon2)cc1S(=O)(=O)N1CCCC1`, -0.0785; for `O=C1c2ccccc2C(=O)N1Cc1nc2ccccc2o1`, 1.7.
In the case of `CCC(=O)N1CCN(c2ccccc2NC(=O)c2cccc(C)c2)CC1`, the z-score is -0.35.
For `COc1cc(/C=C(\C#N)C(=O)c2c(C)[nH]c3ccccc23)cc(OC)c1OC` the value was -0.563; for `COc1ccc(C(=O)NCCc2cn3ccc(C)cc3n2)cc1`, -0.495; for `COc1ccc(NC(=O)C(NC(=O)OC(C)(C)C)C(C)OCc2ccccc2)cc1` (configuration not stated), -0.288.
In the case of `O=C(CN1C(=O)C2CCCN2C(=O)c2ccccc21)Nc1ccccc1-n1cccc1` (configuration not stated) it was 0.267; in that of `CCOC(=O)N1CCC(n2c(SCC(=O)N3CCCC3)nc3ccccc3c2=O)CC1`, -0.306.
In the case of `Cc1ccc(C(=O)NCC(=O)OCC(=O)c2ccc3c(c2)OCCO3)cc1C` it was -0.0917; in that of `CN(Cc1ccccc1)C(=O)CCSc1nc(-c2ccc3c(c2)OCO3)cc(C(F)(F)F)n1`, -0.301.
For the compound `CCC(=O)Nc1ccc(C(=O)Nc2ccc3c(c2)C(=O)N(CC2CCCO2)C3=O)cc1` (configuration not stated), the z-score is 0.274.
For `Cc1ccc2nc(NCCCNC(=O)c3cnccn3)c(C#N)cc2c1` the value was 0.37.
In the case of `Cc1cc(C=O)c(C)n1-c1ccc(N2CCCC2)c([N+](=O)[O-])c1` it was -1.56; in that of `COc1cccc(N(CC(=O)Nc2cccc(C(C)=O)c2)S(C)(=O)=O)c1`, active: 4.2.
In the case of `CC(C)(C)c1nc2scc(-c3cccs3)c2c(=O)o1` it was 0.0256.
Turning to `CC1CCCCN1c1nc2nonc2nc1N1CCCCC1C` (configuration not stated), the z-score is -0.406.
In turn, `O=c1c2ccccc2nc(COc2ccccc2)n1/N=C/c1cc([N+](=O)[O-])ccc1O` showed a z-score of 0.00614.
In the case of `C/C(=N/NC(N)=S)c1ccccc1[N+](=O)[O-]` it was 0.0329.
For `Clc1ccc(-c2ccnc(Oc3cc(Cl)ccc3Cl)n2)cc1` the value was -0.0489; for `C/[N+]([O-])=C1\Cc2ccccc2C1=O`, 0.0681.
With `COc1ccccc1N1N=C(c2cccs2)CC1c1ccccc1` (configuration not stated), the z-score was -0.269.
For `COc1ccc(-c2cc(C(F)(F)F)nc(SCC(=O)N3CCOCC3)n2)cc1OC` the value was -0.127; for `CCOc1ccc(C(=O)CCc2nc3ccccc3s2)cc1`, -0.389; for `O=C(CCNc1cccc(Cl)c1)c1cccs1`, 1.4.
In the case of `Cc1nc(N/N=C/c2ccccc2)nc(N(C)c2ccccc2)c1[N+](=O)[O-]`, the z-score is -0.198.
With `COc1ccc(-c2nnc(-c3cccs3)o2)cc1OC`, the z-score is -0.0864.
For the compound `Brc1ccc(-c2csc(NC3=NCCCCC3)n2)cc1`, the z-score is -2.18.
With `CCN(CC)S(=O)(=O)c1ccc(N2CCOCC2)c(C(=O)O)c1`, the z-score was -0.625.
In the case of `CC1CCN(c2nc3c(c(=O)[nH]c(=O)n3C)n2CCSc2nc3ccccc3o2)CC1` it was 0.0449; in that of `CCOC(=O)c1c(NC(=O)c2ccoc2C)sc(C(=O)N(C)C)c1C`, -0.113; in that of `O=C(Nc1ccccc1Oc1ccccc1)c1cc([N+](=O)[O-])ccc1Cl`, -0.493.
For `COC(=O)CSc1nnc([C@H](Cc2ccccc2)NC(=O)OC(C)(C)C)o1` the value was 0.138; for `Nc1cc(=O)[nH]c(SCCNS(=O)(=O)c2ccccc2)n1`, -0.896; for `O=C(c1ccc(Br)s1)N1CCN(C/C=C/c2ccccc2)CC1`, -0.21.
As for `Cc1nn(C)c(C)c1CN(C)C(=O)c1cc2nc(-c3ccco3)cc(C(F)(F)F)n2n1`, the z-score turned out to be 0.382.
In the case of `Cc1ccnc(NC(=O)/C=C/c2cccs2)c1` it was -0.491; in that of `Cc1ccc(CNc2ccc(CNc3ncn[nH]3)cc2)cc1`, 0.173; in that of `O=C(Nc1ccccc1)Nc1nnc(-c2cccs2)s1`, -0.264.
In the case of `CC/C(=N/O)c1cnnc(SC)n1` it was -0.0711; in that of `COCC(=O)NCCc1nc(-c2ccccc2)cs1`, -0.0682; in that of `O=C(NCc1ccc(-c2nc3ccccc3s2)cc1)c1ccc(Br)o1`, -0.21.
In the case of `O=C(CC1(O)C(=O)Nc2ccccc21)c1ccc2c(c1)OCO2` (configuration not stated) it was 0.211.
Turning to `CCC1Oc2ccc(C)cc2N(CC(=O)N(Cc2ccncc2)Cc2ccco2)C1=O` (configuration not stated), the z-score was -1.65.
As to `COC(=O)c1[nH]c2ccc(C)cc2c1NC(=O)c1ccccc1[N+](=O)[O-]`, the z-score is 0.816.
Regarding `CCC(C)[C@H](NC(=O)NCc1ccccc1)C(=O)O` (some centres not stated), the z-score was -0.254.
For `O=[N+]([O-])c1ccc(Sc2nc3ccccc3o2)c([N+](=O)[O-])c1` the value was 1.27; for `CCn1ncc2c1C(=O)NC1c3ccccc3C(=O)N21` (configuration not stated), 0.156.
As to `COc1cccc(-c2nnc(N(C)C(=O)c3ccno3)s2)c1`, the z-score is -0.545.
For `O=C(CN1CCc2ccccc2C1)Nc1cc(S(=O)(=O)N2CCOCC2)ccc1N1CCCC1` the value was -0.328; for `CSCCC(NS(=O)(=O)c1ccc(Cl)cc1)C(=O)OCC(=O)NC1CCCCC1` (configuration not stated), -0.148.
In turn, `CC(=O)NC1=NN(C(C)=O)C(C)(CS(=O)(=O)c2ccc3ccccc3c2)S1` (configuration not stated) returned a z-score of 0.537.
Turning to `Clc1ccc(-c2csc3ncnc(NCCN4CCOCC4)c23)cc1`, the z-score was found to be 0.63.
For `COc1ccc(NC(=S)N2CCC(N(C)CC3CCCO3)CC2)cc1Cl` (configuration not stated) the value was 0.164.

The values above are taken from PubChem BioAssay AID488969 (Vanderbilt High Throughput Screening Facility, 2010).
